Reference: article PMC12136788
This is one part of the list.

T1: UNK ZnF1-3 (human, UniProt Q9C0B0 31-174)
T1 sequence: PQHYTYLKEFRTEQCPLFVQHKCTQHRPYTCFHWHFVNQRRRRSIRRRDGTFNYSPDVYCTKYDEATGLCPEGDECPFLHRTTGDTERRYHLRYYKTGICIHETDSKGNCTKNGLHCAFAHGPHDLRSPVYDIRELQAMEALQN

B1: 48734410_48737159_2188_CDS_ENSG00000162869_ENST00000294952|human|control|control (ssRNA)
RNA: GGGAGUUCUACAGUCCGACGAUCUCGGCACUCGGCAUAAAAAUGCACUGACUUACUGUCAGCCAGCUGCAACUGAGACGUAAGUUCCACUAUCCUUGCCAUGUAGUGAUUUUUAAUUAAGUCUUCACGAGAUUCCACAUCUGGCAACAGAGGAUUGAGCAUCA
B2: chr16:94651144:94651145:+_ENSMUSG00000040785_ENSMUST00000117648|mus_hu|mus_mus_mus_hu_True|28_58 (ssRNA)
RNA: GGGAGUUCUACAGUCCGACGAUCAUUUUCUUGAAUCAAGUGGCGAAUAACAUAGUCCACUGCUUCAUUUAGAAAAUUUUUGCUAGAAAAACAGGUUGUAUAGUCUUCCGUGCUCAGAACUUUCCAAGAAAGCAAUUCUUUGAGCAACAGAGGAUUGAGCAUCA
B3: 132805258_132805378_123_5pUTR_ENSG00000187239_ENST00000446176|human|control|control (ssRNA)
RNA: GGGAGUUCUACAGUCCGACGAUCCAGGGGACGCGAAGGGGCGCUCCGCGCGGCGGGCGCGGCUCUCUGGUCCCCCUCCCCGGCGAUCCCUUUGCCCCCCGAGAUCCCCGCGACGGCGGAAAGCCCGGAGUCCGCGCGGCCUCCCAACAGAGGAUUGAGCAUCA
B4: chr19:8913615:8913616:-_ENSMUSG00000071658_ENSMUST00000096259|mus_hu|mus_mus_mus_hu_False|18_28 (ssRNA)
RNA: GGGAGUUCUACAGUCCGACGAUCAGGGUACCAAAACCUUCUGCCUGAAAUGGGUGCCCCACCCAGUAGGGAGUUGCAGCUGAAAGUAUCUGAUGCAGAAGCAGUGAAUGCAGAGAAGGUCACUAGAGGGGAGGGCCAGGCCAGCAACAGAGGAUUGAGCAUCA
B5: chr6:57703266:57703267:-_ENSMUSG00000037788_ENSMUST00000114297|mus_hu|FALSE|FALSE (ssRNA)
RNA: GGGAGUUCUACAGUCCGACGAUCAAGAGGCUCUGAUUAGUUCAUUAAAAAAUAAGCACCCCCACCUCAUUCCCCGUGAUACAGCACAUCUAGUAAUCUAGGCGCCUCAGCUAAGCUGCAUAGCUCUUAGCACACAGGACAGGUCAACAGAGGAUUGAGCAUCA
B6: chr8:92090715:92090716:+_ENSG00000155100_ENST00000285420|hu_mus|FALSE|FALSE (ssRNA)
RNA: GGGAGUUCUACAGUCCGACGAUCUCUCAGCUGAUCCUCAAGUGCUCCAUACAUACAGUGACCAUCAGAUGGAAUCUGUUUAAUUUCCAAUUCUCUGGCUGCCAAUAUUUGAGCAAGUUUUUCACUCUCAAGAUGUCUGGCUCCCAACAGAGGAUUGAGCAUCA
B7: chr8:80577299:80577300:+_ENSG00000104435_ENST00000220876|hu_mus|FALSE|FALSE (ssRNA)
RNA: GGGAGUUCUACAGUCCGACGAUCUAUUUUUUAACAAAAAUGUAAAUAUUUACAAAAUAAGAUCCAAGGUACUUUUUUAAACAUCAAGCAAAACAUUCUGCAAAGAGACCGCAUUGAUUUUUAUUUUAUUUUUGAUUCUGUUUUCAACAGAGGAUUGAGCAUCA
B8: chr5:38529146:38529147:-_ENSMUSG00000029126_ENSMUST00000031009|mus_mus|motif|central (ssRNA)
RNA: GGGAGUUCUACAGUCCGACGAUCAGAAAAGCUAAAGUAGCCCUGGCUUACCCAAAAUUACAUUUCACUUUGCCCACUGGCGGAUAAAACAAAACAAAACAAAACAAAAAACCCAAACUGCACCUGCAUUCAGGGCUGUACGUGCAACAGAGGAUUGAGCAUCA
B9: chr1:109605286:109605287:-_ENSG00000197780_ENST00000461096|hu_mus|hu_hu_hu_mus_True|88_98 (ssRNA)
RNA: GGGAGUUCUACAGUCCGACGAUCAAGUUUCAGAGUAUUCAGUGAUCUACUUAAAUCAUGCAAUUAUCCUUAUUAUAAGCUAAGCAGAAUAAUAAUUUAAUACCGUAAGUGAACUACACACAAAGCCUGAACCGCGAAAAUGGUCAACAGAGGAUUGAGCAUCA
B10: chr1:94914393:94914394:-_ENSMUSG00000014602_ENSMUST00000171796|mus_mus|motif|central (ssRNA)
RNA: GGGAGUUCUACAGUCCGACGAUCCCUUUAUUGCUCCAUUUUGGGAACUGUUCCCUCAGAAGGGUGACUUCUGAAUUGUCGGAGUCUCAGAACUUGCACAACCUCUCACACACGUACCAUGCAAGGUGCAUCUCAGACAAAACUCAACAGAGGAUUGAGCAUCA
B11: chr7:149068622:149068623:-_ENSMUSG00000025139_ENSMUST00000001950|mus_hu|mus_mus_mus_hu_False|8_68 (ssRNA)
RNA: GGGAGUUCUACAGUCCGACGAUCGUGAGGCCUCUGAGUGUGGCUUGUGGUCUGUCCUGGGUUAGAGCUGCUGGUAACACGGAACAUACCAUCUAGAACGUUCCAGUCCCGCCUGACACCUUCAUUCGCAAGAGGGCAGAAAUCCAACAGAGGAUUGAGCAUCA
B12: chr7:140404665:140404666:+_ENSG00000090266_ENST00000247866|hu_hu|hu_hu_hu_mus_False|38_78 (ssRNA)
RNA: GGGAGUUCUACAGUCCGACGAUCUGCUCCUACUCGUCCAGAGAGUUUACAGUGUCAGUCUUCAUCAUCAGGAGGGAUUCCCAGUUCUUCAUCUGUCCACUGGGAAGGAUCUGGAUAUGAAAAGUGACCCAGCACAGCAUCCGACAACAGAGGAUUGAGCAUCA
B13: chr3:179287964:179287965:+_ENSG00000136518_ENST00000429709|hu_hu|hu_hu_hu_mus_True|58_68 (ssRNA)
RNA: GGGAGUUCUACAGUCCGACGAUCCUUGAGUGGUGAGAUGGCCUCCAUGUUCUCCCUGGGCACGCGGAGAGCAUUAGUAUCUAUGUAGUAGGUGGGCCCGCCCUGCUUGCCUUUGUCACCAUCAAUCUCCAUCAUUGUACUUCCCAACAGAGGAUUGAGCAUCA
B14: chr17:20919178:20919179:-_ENSG00000124422_ENST00000537526|hu_hu|FALSE|FALSE (ssRNA)
RNA: GGGAGUUCUACAGUCCGACGAUCGAGCACGUCCAGGGCCGCGAUGAGGAACUCGUGGGCGUCCUGCUGCUCGUAGCCUGCUAGGUGCCUCGCGUGGGUCCACACCAGGUGCAGCAACUUAUACGGGAUGUGAGGGGACCGGUGCAACAGAGGAUUGAGCAUCA

biological target: T1, UNK ZnF1-3; test: nsRBNS (natural sequence RNA bind-n-seq); RBNS binding buffer (assumed for nsRBNS): 25 mM Tris pH 7.5, 150 mM KCl, 3 mM MgCl2, 0.01% Triton X-100, 500 ug/ml BSA, 20 U/ml SUPERase-In, 4 C; UNK is unkempt and MSI1 is Musashi-1; names of the RNAs are library labels; protein concentration not given here; high values mean tight binding

Row | Binder | binding signal
1 | B1 | 0.903 enrichment R
2 | B2 | 0.473 enrichment R
3 | B3 | 1.3 enrichment R
4 | B4 | 1.52 enrichment R
5 | B5 | 1.51 enrichment R
6 | B6 | 0.922 enrichment R
7 | B7 | 1.54 enrichment R
8 | B8 | 1.58 enrichment R
9 | B9 | 0.687 enrichment R
10 | B10 | 0.787 enrichment R
11 | B11 | 0.953 enrichment R
12 | B12 | 1.5 enrichment R
13 | B13 | 0.863 enrichment R
14 | B14 | 1 enrichment R
